Consider 28 molecules from PubChem BioAssay AID1745853 (National Center for Advancing Translational Sciences (NCATS), 2022).

What all share (experiment): Primary Screen for Target Class Profiling of Small Molecule Inhibitors of Methyltransferases
For test [1], the target named is Glycine N-methyltransferase (Homo sapiens) (UniProt Q14749). Conditions: purified enzyme, MTase-Glo SAH luminescence; measured here: GNMT inhibition; at 40 µM; stronger effect = lower value. The method, boiled down:
(§1)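 Each enzyme was reacted with SAM and its substrate, with compounds tested once at 40 uM; SAH formed was read by MTase-Glo luminescence.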

Test [2] deals with Guanidinoacetate N-methyltransferase (Homo sapiens) (UniProt Q14353). Conditions: purified enzyme, MTase-Glo SAH luminescence; measured here: GAMT inhibition; at 40 µM; stronger effect = lower value. The method, boiled down:
as §1

Test [3] has as its target Histamine N-methyltransferase (Homo sapiens) (UniProt P50135). The note with it: purified enzyme, MTase-Glo SAH luminescence; measured here: HNMT inhibition; at 40 µM; stronger effect = lower value. The method, boiled down:
as §1

Test [4] addresses Nicotinamide N-methyltransferase (Homo sapiens) (UniProt P40261). Conditions: purified enzyme, MTase-Glo SAH luminescence; measured here: NNMT inhibition; at 40 µM; stronger effect = lower value. The essentials:
as §1

The target in test [5] is Phenylethanolamine N-methyltransferase (Homo sapiens) (UniProt P11086). Conditions: purified enzyme, MTase-Glo SAH luminescence; measured here: PNMT inhibition; at 40 µM; stronger effect = lower value. The essentials: as §1

The list shows a part of the results. The main result of the screen is listed elsewhere. These columns were measured beside it and carry no call.
% is set by controls: 0 for no effect and ±100 for the full control effect.

As to `CCCC(C)N1CC2(CCN(C(=O)c3ccc(C(C)=O)s3)CC2)OC1=O` (stereo not given), the activity change, negative = inhibition in test [1] is -2.57%; in test [2], -7.02%; in test [3], -1.76%; in test [4] it was -5.86%; in test [5], -3.93%.

Take `O=C1COC2(CCN(S(=O)(=O)c3ccc(-c4ccc5cccnc5c4)cc3)CC2)CN1C1CC1`: the activity change, negative = inhibition in test [1] was -19.5%; in test [2] it was -4.44%; in test [3] it was -2.16%; in test [4] it was -30%; in test [5] it was 1.23%.

For `Cc1ccc(CN2CCN(c3ncnc4onc(C)c34)CC2CCO)cc1` (stereo not given), the activity change, negative = inhibition is -4.98% in test [1]; -10.2% in test [2]; -6% in test [3]; -12.6% in test [4]; -9.54% in test [5].

Consider `CCCn1cnc2c1CN(C(=O)c1ccc(F)cc1)[C@H](C(=O)OC)C2`, for which the activity change, negative = inhibition in test [1] is -4.85%; in test [2] it was -3.98%; in test [3], -2.54%; in test [4], -7.38%; in test [5], -1.83%.

For the molecule `O[C@@H]1C[C@@H](c2nc(Cc3ccc(F)cc3Cl)no2)N(Cc2ccc(OC(F)(F)F)cc2)C1`, the activity change, negative = inhibition in test [1] was -11%; in test [2], -7.58%; in test [3], -3.42%; in test [4] it was -20.1%; in test [5] it was -10.2%.

Turning to `C[C@@H]1O[C@@H](O[C@@H]2[C@@H](O)[C@H](O[C@H]3[C@H](O[C@H]4CC[C@@]5(C)C(CC[C@]6(C)C5CC=C5[C@@H]7CC(C)(C)CC[C@]7(C(=O)O[C@@H]7O[C@H](CO)[C@@H](O)[C@H](O)[C@H]7O)CC[C@]56C)C4(C)C)O[C@H](C(=O)O)[C@@H](O)[C@@H]3O)OC[C@H]2O)[C@H](O)[C@H](O)[C@H]1O` (stereo not given in full), the activity change, negative = inhibition is 4.73% in test [1]; 8.54% in test [2]; 6.48% in test [3]; -5.81% in test [4]; 8.56% in test [5].

Turning to `C/C=C/CCC1Cc2cc(O)c(CCCC)c(O)c2C(=O)O1` (stereo not given), the activity change, negative = inhibition in test [1] is 4.33%; in test [2] it was -3.27%; in test [3] it was 11.1%; in test [4], -18.2%; in test [5] it was -7.67%.

On to `Cc1cc(C)cc(-c2ccc(CN3CCCC(N[S+](C)(=O)[O-])C3)cc2)c1` (stereo not given), for which the activity change, negative = inhibition is -2.58% in test [1]; 0.972% in test [2]; 1.32% in test [3]; -3.01% in test [4]; -0.074% in test [5].

Turning to `CCOC(=O)c1cc2n(n1)CC(C)(C(=O)NC1CCCCC1)N(c1cc(Cl)ccc1C)C2=O` (stereo not given), the activity change, negative = inhibition in test [1] is -1.3%; in test [2], 1.96%; in test [3] it was -17.1%; in test [4], -6.08%; in test [5] it was -5.5%.

As to `Cc1cccc([C@H]2Nc3ccc(S(=O)(=O)Nc4cc(C)ccc4C)cc3[C@H]3C=CC[C@H]32)c1`, the activity change, negative = inhibition was -13.4% in test [1]; -8.09% in test [2]; -18.3% in test [3]; -10.6% in test [4]; -15.7% in test [5].

`C[C@@H]1O[C@@H](OC2C(O[C@H]3[C@H](O[C@H]4CC[C@@]5(C)C(CC[C@]6(C)C5CC=C5C7CC(C)(C)CC(O)[C@]7(C)CC[C@]56C)C4(C)C)O[C@H](C(=O)O)[C@@H](O)[C@@H]3O)OC(CO)C(O)C2O)[C@H](O)[C@H](O)[C@H]1O` (stereo not given in full): the activity change, negative = inhibition was 3.49% in test [1]; 8.41% in test [2]; 9.34% in test [3]; -19.5% in test [4]; 4.3% in test [5].

For `CC(C)c1ccc(N2C(=O)c3cc4sccc4n3CC2(C)C(=O)NC2CCCCC2C)cc1` (stereo not given), the activity change, negative = inhibition in test [1] is 1.39%; in test [2] it was 0.535%; in test [3], 3.02%; in test [4], 4.13%; in test [5] it was -3.57%.

On to `Cc1cccc(-c2nn3c(c2-c2ccnc4ccc(C(N)=O)cc24)CCC3)n1`, for which the activity change, negative = inhibition in test [1] was 5.71%; in test [2] it was 4.47%; in test [3] it was 8.67%; in test [4] it was -10.8%; in test [5], 3.89%.

For the molecule `CC1(C(=O)NC2CCCCCCC2)Cn2c(cc3occc32)C(=O)N1C1CCCCCC1` (stereo not given), the activity change, negative = inhibition in test [1] was 2.29%; in test [2] it was 0.942%; in test [3], 9.05%; in test [4], -1.61%; in test [5], 1.11%.

On to `CCCC1c2ccc(C)n2CCN1C(=O)Nc1cc(Cl)ccc1C` (stereo not given), for which the activity change, negative = inhibition in test [1] is 6.23%; in test [2], 1.45%; in test [3], -1.89%; in test [4] it was 9.75%; in test [5] it was 1.03%.

`COc1ccc(-c2n[nH]n3c2nc(=O)c2ccc(C(=O)NCc4ccccc4Cl)cc23)cc1`: the activity change, negative = inhibition in test [1] is -8.35%; in test [2], 0%; in test [3] it was 6.08%; in test [4], 3.23%; in test [5] it was 0.06%.

For `CC(C)Oc1ccc(CN2C(=O)c3cc(C4CC4)nn3CC2(C)C(=O)NC2CCCCCC2)cc1` (stereo not given), the activity change, negative = inhibition in test [1] was 0.596%; in test [2] it was 5.06%; in test [3], 1.75%; in test [4], -2.9%; in test [5] it was 1.15%.

In the case of `CC(=O)SCC(CC(=O)c1ccc(C)cc1)C(=O)O` (stereo not given), the activity change, negative = inhibition in test [1] was -1.62%; in test [2], 7.03%; in test [3] it was 4.16%; in test [4], -14.2%; in test [5] it was -4.3%.

Take `CCOc1ccc(NC(=O)N2Cc3c(sc4c3CCCC4)-n3cccc3C2c2cc(F)cc(F)c2)cc1` (stereo not given): the activity change, negative = inhibition in test [1] was 0.463%; in test [2], 0%; in test [3], 4.59%; in test [4], -0.304%; in test [5], 5.11%.

For the molecule `CCCCNC(=O)Cn1ccc2cc(S(=O)(=O)N3CCC(C)CC3)ccc21`, the activity change, negative = inhibition came out at 1.79% in test [1]; 0.587% in test [2]; 0.673% in test [3]; 0.193% in test [4]; 0.374% in test [5].

As to `O=S(=O)(O)c1ccc(Nc2ncnc3c2ncn3[C@@H]2O[C@H](CO)[C@@H](O)[C@H]2O)cc1`, the activity change, negative = inhibition in test [1] is 1.84%; in test [2], 7.58%; in test [3] it was 13.8%; in test [4], -4.2%; in test [5], 8.72%.

With `Cc1cc2c(cc3n2CC(C)(C(=O)NC2CCCCCC2)N(c2ccc(Cl)cc2)C3=O)o1` (stereo not given), the activity change, negative = inhibition in test [1] was 1.05%; in test [2], 3.32%; in test [3] it was 7.78%; in test [4], 4.23%; in test [5] it was 0.643%.

Take `CC(C)c1ccc(N2C(=O)c3cc4sccc4n3CC2(C)C(=O)NC2CCCCCC2)cc1` (stereo not given): the activity change, negative = inhibition was -1.56% in test [1]; 3.64% in test [2]; 5.49% in test [3]; 4.59% in test [4]; -0.993% in test [5].

Regarding `C/C=C(/C)C(=O)O[C@H]1C=C(CO)C(=O)[C@H](OC(=O)/C(C)=C/CO)[C@H]1C(C)C`, the activity change, negative = inhibition in test [1] was -2.91%; in test [2], 2.73%; in test [3], 1.19%; in test [4], -7.38%; in test [5], -0.58%.

On to `Cc1cc(C#N)c(-c2ccccc2C(=O)N(C(C)C)C(C)C)nc1C`, for which the activity change, negative = inhibition in test [1] was -2.19%; in test [2], -0.387%; in test [3] it was -17.8%; in test [4] it was -6.18%; in test [5], 0.881%.

Regarding `CC(C)NC(=O)Cn1nc2n(C(C)C)c(=O)c3ccc(C(=O)NC4CCCCC4)cc3n2c1=O`, the activity change, negative = inhibition in test [1] was 1.76%; in test [2] it was 5.49%; in test [3] it was 5.88%; in test [4], 2.33%; in test [5], 1.97%.

As to `CCCN(C)c1nccnc1OC1CCN(C(=O)c2cccc(OC)c2OC)C1` (stereo not given), the activity change, negative = inhibition was -6.21% in test [1]; -11% in test [2]; -4.43% in test [3]; -28% in test [4]; -8.33% in test [5].

Consider `CC(C)CNC(=O)c1ccc2c(=O)n(C)c3nn(Cc4cccc(Cl)c4)c(=O)n3c2c1`, for which the activity change, negative = inhibition is 0.143% in test [1]; 0% in test [2]; 7.04% in test [3]; -1.16% in test [4]; 5.79% in test [5].
